{"source": "PubChem BioAssay AID360", "about": "(National Center for Advancing Translational Sciences (NCATS), 2006)", "note": "The campaign covered roughly 48,000 compounds. About 550 (1.1%) were called active. Not shown: some 4% with an inconclusive outcome. No stated cut-off is given here; in the data, active means potency below about 15 µM; inconclusive means mostly about 16 µM to 33 µM; inactive means weaker than that. The list shows a part of the results. Potency means the concentration at half of the fitted maximal effect."}
{"target": "Lysosomal acid glucosylceramidase (Homo sapiens) (UniProt P04062)", "sequence (P04062 whole entry, looked up)": "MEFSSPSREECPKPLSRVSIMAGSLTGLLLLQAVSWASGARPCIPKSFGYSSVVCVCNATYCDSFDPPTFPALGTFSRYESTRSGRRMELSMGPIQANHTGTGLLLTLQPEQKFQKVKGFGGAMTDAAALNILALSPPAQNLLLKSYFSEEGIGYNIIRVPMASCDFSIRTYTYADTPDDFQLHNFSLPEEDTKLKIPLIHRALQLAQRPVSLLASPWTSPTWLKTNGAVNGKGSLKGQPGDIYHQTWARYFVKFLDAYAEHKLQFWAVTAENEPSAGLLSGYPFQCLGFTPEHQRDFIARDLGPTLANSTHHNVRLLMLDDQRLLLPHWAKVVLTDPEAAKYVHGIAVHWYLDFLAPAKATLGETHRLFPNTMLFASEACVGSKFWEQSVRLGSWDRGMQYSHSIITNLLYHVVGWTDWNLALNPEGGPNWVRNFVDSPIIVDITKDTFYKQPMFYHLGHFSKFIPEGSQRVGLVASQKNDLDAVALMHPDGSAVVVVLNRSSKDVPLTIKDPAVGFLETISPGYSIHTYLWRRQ", "test": "Glucocerebrosidase;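 further: the screen sought inhibitors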", "details": "purified enzyme, resorufin glucoside fluorescence (screen aimed at inhibitors), 20 min", "in_short": "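Wild-type enzyme at 0.2 nM final in 50mM citric acid/KH2PO4, 10mM sodium taurocholate, 0.01% tween-20, pH 5.9, with resorufin beta-D-glucopyranoside at 30 uM final. Compounds titrated, 20 min at RT, red fluorescence read; AC50 from titration.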"}
{"smiles": "CC(C(=O)OCn1nnc2ccccc2c1=O)N1C(=O)c2ccccc2C1=O", "note": "(stereo not given)", "Potency": "inactive: > 76.9 µM"}
{"smiles": "CCC(C)(C)n1nnnc1C(C(C)C)N1CCSCC1", "note": "(stereo not given)", "Potency": "inactive: > 76.9 µM"}
{"smiles": "O=C(OCCN1C(=O)CCC1=O)c1ccc(S(=O)(=O)N2CCCCC2)cc1", "Potency": "inactive: > 76.9 µM"}
{"smiles": "CCOc1ccc2[nH]c(=O)c(CN(C(=O)N3CCOCC3)C3CC3)cc2c1", "Potency": "inactive: > 76.9 µM"}
{"smiles": "Cn1cnc2c(N3CCCCC3)nccc21", "Potency": "inactive: > 76.9 µM"}
{"smiles": "Cc1ccc(C2CC(C(F)(F)F)n3nc(C(=O)NCc4ccco4)cc3N2)cc1", "note": "(stereo not given)", "Potency": "inactive: > 76.9 µM"}
{"smiles": "CCOc1ccc(NC(=O)c2cccc3c2C(=O)N(Cc2cccnc2)C3)cc1", "Potency": "inactive: > 76.9 µM"}
{"smiles": "COCCCN1C(=O)C(=O)/C(=C(/O)c2ccc(C)cc2)C1c1ccccc1", "note": "(stereo not given)", "Potency": "inactive: > 76.9 µM"}
{"smiles": "CCOC(=O)Cc1csc(Nc2c(C)n(C)n(-c3ccccc3)c2=O)n1", "Potency": "inactive: > 76.9 µM"}
{"smiles": "Cc1cc(C)cc(-n2nnc(C(=O)NCc3ccccc3)c2N)c1", "Potency": "inactive: > 76.9 µM"}
{"smiles": "CCOc1ccc(Nc2nc(C)cc(C)c2C#N)cc1", "Potency": "inactive: > 76.9 µM"}
{"smiles": "Cc1ccc(NC2=NC(c3ccccc3)n3c(nc(C)cc3=O)N2)cc1", "note": "(stereo not given)", "Potency": "inactive: > 76.9 µM"}
{"smiles": "O=C(CCN1C(=O)CSC1=O)Nc1ccccc1", "Potency": "inactive: > 76.9 µM"}
{"smiles": "C=CCc1c(C)nc(SC(C)C)[nH]c1=O", "Potency": "inactive: > 76.9 µM"}
{"smiles": "Cc1nn(CC(=O)Nc2ccc(C(=O)N3CCCC3)cc2)c(=O)c2ccccc12", "Potency": "inactive: > 76.9 µM"}
{"smiles": "O=C(NC(NC1CCS(=O)(=O)C1)C(=O)c1ccccc1)c1ccc(Cl)cc1", "note": "(stereo not given)", "Potency": "inactive: > 76.9 µM"}
{"smiles": "Cc1cc(C)n(CNc2nc(C(F)(F)F)cs2)n1", "Potency": "inactive: > 76.9 µM"}
{"smiles": "COC(=O)CSc1nnc(CNS(=O)(=O)c2ccc(C)cc2)n1C", "Potency": "inactive: > 76.9 µM"}
{"smiles": "COC(=O)c1cc(NC2c3ncccc3C(=O)N2Cc2ccccc2)cc(C(=O)OC)c1", "note": "(stereo not given)", "Potency": "inactive: > 76.9 µM"}
{"smiles": "COc1ccc(-c2nnc3ccc(SCC(=O)NCc4ccco4)nn23)cc1OC", "Potency": "inactive: > 76.9 µM"}
{"smiles": "CC(=O)c1cc(C)ccc1OC(=O)c1cccc2nc(C)oc12", "Potency": "inactive: > 76.9 µM"}
{"smiles": "CSc1oc(-c2ccc(F)cc2)nc1S(=O)(=O)c1ccccc1", "Potency": "inactive: > 76.9 µM"}
{"smiles": "CC(=O)c1cccc(NC(=O)N2CCCC2C(=O)Nc2cc(C)ccc2C)c1", "note": "(stereo not given)", "Potency": "inactive: > 76.9 µM"}
{"smiles": "COc1ccc(Cl)cc1NC(=O)c1c(-c2ccccc2)noc1C", "Potency": "inactive: > 76.9 µM"}
{"smiles": "CCN1C(=O)/C(=C\\N2CCN(c3ccccc3)CC2)SC1=S", "Potency": "inactive"}
{"smiles": "CCOC(=O)c1[nH]c2c(c1C)C(=O)CC(c1ccc(OC)c(OC)c1)C2", "note": "(stereo not given)", "Potency": "inactive: > 76.9 µM"}
{"smiles": "CCN(CC)c1nc(Nc2ccccc2)nc(Oc2ccc(=O)n(C)n2)n1", "Potency": "inactive: > 76.9 µM"}
{"smiles": "Cc1cccc(-c2c3c(=O)n(C)c(=O)n(C)c3cn2C(C)C)c1", "Potency": "inactive: > 76.9 µM"}
{"smiles": "Cn1c(=O)c(=O)n(C)c2cc(S(=O)(=O)N3CCN(c4cccc(C(F)(F)F)c4)CC3)ccc21", "Potency": "inactive: > 76.9 µM"}
{"smiles": "Cc1ccc(Oc2cc(C)nc(-c3ccccc3O)n2)cc1", "Potency": "inactive: > 76.9 µM"}
{"smiles": "CCN(C(=O)c1ccnc(C(C)(C)C)c1)c1ccccc1", "Potency": "inactive: > 76.9 µM"}
{"smiles": "CCCCCCn1c(CN2CCCC(C)C2)nc2c1c(=O)n(C)c(=O)n2C", "note": "(stereo not given)", "Potency": "inactive: > 76.9 µM"}
{"smiles": "CC(=O)N1c2c(cc(Br)cc2S(=O)(=O)N2CCN(c3ccccn3)CC2)CC1C", "note": "(stereo not given)", "Potency": "inactive: > 76.9 µM"}
{"smiles": "NC(=O)COC(=O)c1ccc(S(=O)(=O)N2CCCCCC2)cc1", "Potency": "inactive: > 76.9 µM"}
{"smiles": "Cc1cnc(NC(=O)C2CCCO2)s1", "note": "(stereo not given)", "Potency": "inactive: > 76.9 µM"}
{"smiles": "CCCCN(C)CCCNC(=O)c1ccc(N2CCCC2=O)cc1", "Potency": "inactive: > 76.9 µM"}
{"smiles": "CCN(Cc1ccccc1)C(c1ccccn1)c1nnnn1C(C)(C)CC", "note": "(stereo not given)", "Potency": "inactive: > 76.9 µM"}
{"smiles": "CCOc1ccc(C(=O)N(C)C2CCS(=O)(=O)C2)cc1", "note": "(stereo not given)", "Potency": "inactive: > 76.9 µM"}
{"smiles": "CC(C)N(Cc1ccccc1)C(=O)COC(=O)c1ccc2c(c1)OCCO2", "Potency": "inactive: > 76.9 µM"}
{"smiles": "O=C(CSc1nnc(-c2ccco2)n1Cc1ccco1)N1CCOCC1", "Potency": "inactive: > 76.9 µM"}
{"smiles": "CC(C)(C)n1nc2c(c1NC(=O)c1ccc(Br)o1)CS(=O)C2", "note": "(stereo not given)", "Potency": "inactive: > 76.9 µM"}
{"smiles": "Cc1ccccc1OCC1Cn2c(nc3c2c(=O)[nH]c(=O)n3C)O1", "note": "(stereo not given)", "Potency": "inactive: > 76.9 µM"}
{"smiles": "COc1ccc(C2=NOC(C(=O)NCc3ccc(F)cc3)C2)cc1OC", "note": "(stereo not given)", "Potency": "inactive: > 76.9 µM"}
{"smiles": "N=c1n(Cc2ccccc2)c2ccccc2n1CC(O)c1ccccc1", "note": "(stereo not given)", "Potency": "inactive: > 76.9 µM"}
{"smiles": "COc1ccc(N2CC(C(=O)NCc3cccnc3)CC2=O)cc1", "note": "(stereo not given)", "Potency": "inactive: > 76.9 µM"}
{"smiles": "O=C(O)CCC(=O)N1CCN(c2ccccn2)CC1", "Potency": "inactive: > 76.9 µM"}
{"smiles": "Cc1cc(=O)n2nc(N3CCCC(C(=O)N4CCN(C)CC4)C3)sc2n1", "note": "(stereo not given)", "Potency": "inactive: > 76.9 µM"}
{"smiles": "CCOC(=O)c1cnc(-n2nc(C)cc2C)nc1NCc1ccccc1", "Potency": "inactive: > 76.9 µM"}
{"smiles": "CCCOc1ccc(N2C(=O)CC(NCCCN3CCC(C(N)=O)CC3)C2=O)cc1", "note": "(stereo not given)", "Potency": "inactive: > 76.9 µM"}
{"smiles": "O=C(CN(C(=O)CNC(=O)c1ccco1)c1ccc2c(c1)OCO2)NC1CCCCC1", "Potency": "inactive: > 76.9 µM"}
{"smiles": "COc1ccc(OC)c(NC(=O)c2ccc(S(=O)(=O)N3CCN(C)CC3)cc2)c1", "Potency": "inactive: > 76.9 µM"}
{"smiles": "CC1CCc2c(C(=O)NCC3CCCO3)csc2C1", "note": "(stereo not given)", "Potency": "inactive: > 76.9 µM"}
{"smiles": "COc1ccccc1Nc1nnc(SCC(=O)N2CCCC2=O)s1", "Potency": "inactive: > 76.9 µM"}
{"smiles": "N#CC(C(=O)O)=C1CCCC1", "Potency": "inactive: > 76.9 µM"}
{"smiles": "Cc1ccc(-c2nnn(CC(=O)N(Cc3ccco3)C(C(=O)NC(C)(C)C)c3cccs3)n2)o1", "note": "(stereo not given)", "Potency": "inactive: > 76.9 µM"}
{"smiles": "O=C(CN1CCN(c2ccccn2)CC1)NCc1cccs1", "Potency": "inactive: > 76.9 µM"}
{"smiles": "O=C1c2ccccc2S(=O)(=O)N1CC1CC(c2ccccc2)=NO1", "note": "(stereo not given)", "Potency": "inactive: > 76.9 µM"}
{"smiles": "CCCCS(=O)(=O)N1CN(S(=O)(=O)CCCC)C2NC(=O)NC21", "note": "(stereo not given)", "Potency": "inactive: > 76.9 µM"}
{"smiles": "Cc1oc2c(CN3CCOCC3)c(O)ccc2c(=O)c1-c1ccc(Br)cc1", "Potency": "inactive: > 76.9 µM"}
{"smiles": "O=C1c2ccccc2C(=O)N1C/C=C/c1ccccc1", "Potency": "inactive: > 76.9 µM"}
{"smiles": "COCCCNC(=O)C1CCN(S(=O)(=O)N(CC(C)C)CC(C)C)CC1", "Potency": "inactive: > 76.9 µM"}
{"smiles": "Cc1c(N=C/C=C/c2ccccc2)cnn1C", "Potency": "inactive: > 76.9 µM"}
{"smiles": "CCOc1cc(C2/C(=C(\\O)c3cc(C)ccc3C)C(=O)C(=O)N2CCN(C)C)ccc1O", "note": "(stereo not given)", "Potency": "inactive: > 76.9 µM"}
{"smiles": "Nc1nc2n(n1)C(c1ccco1)CC(c1ccc(Cl)cc1Cl)N2", "note": "(stereo not given)", "Potency": "inactive: > 76.9 µM"}
{"smiles": "Cc1cccc(C)c1OCC(O)CN", "note": "(stereo not given)", "Potency": "inactive: > 76.9 µM"}
{"smiles": "CCOCCCN(C(=O)Nc1ccc(CC)cc1)C1CCN(C(C)=O)CC1", "Potency": "inactive: > 76.9 µM"}
{"smiles": "CCc1ccc2oc(=O)cc(CN3CCOCC3)c2c1", "Potency": "inactive: > 76.9 µM"}
{"smiles": "CCn1c(SCC(=O)NC(C)(C)C)nc(O)cc1=O", "Potency": "inactive: > 76.9 µM"}
{"smiles": "CC1CCCCC1NC(=O)CSc1nnnn1-c1ccccc1", "note": "(stereo not given)", "Potency": "inactive: > 76.9 µM"}
{"smiles": "CN1C(=O)NC(NC(=O)c2cccs2)(C(F)(F)F)C1=O", "note": "(stereo not given)", "Potency": "inactive: > 76.9 µM"}
{"smiles": "COc1cc(OC)c(C2SCCN2S(=O)(=O)c2ccc(F)cc2)cc1OC", "note": "(stereo not given)", "Potency": "inactive: > 76.9 µM"}
{"smiles": "Cn1c(C(=O)OCC(=O)NCc2ccco2)cc2sccc21", "Potency": "inactive: > 76.9 µM"}
{"smiles": "Cc1ccc(S(=O)(=O)NCc2ccco2)c(C)c1C", "Potency": "inactive: > 76.9 µM"}
{"smiles": "S=c1[nH]nc(-c2cccnc2)n1Cc1ccccc1", "Potency": "inactive: > 76.9 µM"}
{"smiles": "Cc1oc(C)c2c(=O)ccc3c(c12)OC(N)=C(C#N)C3c1ccccc1", "note": "(stereo not given)", "Potency": "inactive: > 76.9 µM"}
{"smiles": "O=C(O)C1C2C=CC(O2)C1C(=O)Nc1ccccc1C(F)(F)F", "note": "(stereo not given)", "Potency": "inactive: > 76.9 µM"}
{"smiles": "O=C(C1CCC1)N1CCc2cc(S(=O)(=O)N3CCc4ccccc4C3)ccc21", "Potency": "inactive: > 76.9 µM"}
{"smiles": "Cc1noc(C)c1S(=O)(=O)Nc1ccc(C(=O)NCCc2ccccc2)cc1", "Potency": "active: 1.62 µM"}
{"smiles": "CC1CN(c2oc(COc3ccc(Cl)cc3Cl)nc2C#N)CC(C)O1", "note": "(stereo not given)", "Potency": "inactive: > 76.9 µM"}
{"smiles": "CC(C)OC(=O)CSc1n[nH]c(-c2cccnc2)n1", "Potency": "inactive: > 76.9 µM"}
{"smiles": "CCCc1nc2c(sc3nc4c(cc32)COC(C)(C)C4)c(=O)n1Cc1ccco1", "Potency": "inactive: > 76.9 µM"}
{"smiles": "COc1ccc(/C=C/C(O)=C2/C(=O)N(C)C3(C)CC2c2ccccc2O3)cc1", "note": "(stereo not given)", "Potency": "inactive: > 76.9 µM"}
{"smiles": "N#CC1=C(N)Oc2n[nH]c(-c3ccccc3)c2C1c1cccnc1", "note": "(stereo not given)", "Potency": "inactive: > 76.9 µM"}
{"smiles": "O=C(Nc1ccc2ccccc2c1)N1CCN(c2ncccc2C(F)(F)F)CC1", "Potency": "inactive: > 76.9 µM"}
{"smiles": "O=C(c1ccco1)N1CCN(c2cc(C(F)(F)F)nc3ncnn23)CC1", "Potency": "inactive: > 76.9 µM"}
{"smiles": "Cc1ccc(-n2c(=O)[nH]cc(C(=O)N3CCc4ccccc43)c2=O)cc1", "Potency": "inactive: > 76.9 µM"}
{"smiles": "CC1CCC2(CC1)NC(=O)N(Cc1nc(-c3ccccc3)no1)C2=O", "note": "(stereo not given)", "Potency": "inactive: > 76.9 µM"}
{"smiles": "CCc1ccc(NC(=O)N(C2CCC(C)CC2)C2CCN(C(C)=O)CC2)cc1", "note": "(stereo not given)", "Potency": "inactive: > 76.9 µM"}
{"smiles": "CCOC(=O)c1cc(NC(=O)N2CCCCC2)c(C)nc1C", "Potency": "inactive: > 76.9 µM"}
{"smiles": "COCCCNC(=O)c1ccc2c(=O)n(C3CCCC3)c(=S)[nH]c2c1", "Potency": "inactive: > 76.9 µM"}
